From PubChem BioAssay (NCI)
“And” between values parts separate entries of the source, which are not always exact repeats. Identical values can stand only once.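 Exposure lasted 48 hours, with cells grown in 96-well plates and compounds tested at five concentrations. GI50 marks 50% less growth. At the TGI there is no net growth.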

Test system: NCI-H322M lung
Assay: NCI anticancer screen, dose series, 48 h

Compound	GI50	TGI
COc1ccc(C2CC(c3ccccc3)=NN2C(=O)c2cc(OC)c(OC)c(OC)c2)cc1O (stereo not drawn)	0.932 µM	> 100 µM
CC12CC/C(=N/NC(N)=O)C3C1CCCC32		> 100 µM
[N-]=[N+]=NCCCn1c2c(c3ccc([N+](=O)[O-])cc3c1=O)C(=O)c1cc(I)ccc1-2	25.3 µM	> 100 µM
O=C(c1cc(Cl)cc(Cl)c1)N(Cc1cccnc1)C(=S)N(Cc1cccnc1)C(=O)c1cc(Cl)cc(Cl)c1		> 100 µM
CCOc1ccc(N2C(=O)NC3(c4ccccc4)N(C)C(=O)N(C)C23c2ccccc2)cc1 (stereo not drawn)		> 100 µM
COc1ccc(NC(=S)C#N)cc1		> 100 µM
CC(=O)NNc1nc(C)c(C(/C=C/c2ccc(Cl)cc2)=N\N=C(N)N)s1		> 100 µM
COC(C)(C)[C@@H]1CCCN1C1=C(C)C(=O)OC1		> 100 µM
O=CC1CCC=CC1NC(=O)OCc1ccccc1 (stereo not drawn)		> 100 µM
CCN(CC)C(=S)/N=C(\SC(=S)N(CC)CC)c1ccccc1		> 100 µM
Fc1cc(C2=Nn3c(CNc4ccc(Cl)cc4)nnc3S/C2=C\c2ccc(-c3ccc(Cl)cc3)o2)c(Cl)cc1Cl		> 100 µM
CCC(CC)c1cc(N[C@H]2CC[C@H](N)C2)n2nccc2n1	2.6 µM	> 100 µM
CCc1cccc(C)c1N1C(=O)C(=O)C(c2nc3ccccc3o2)/C(=N/NC(=S)NN)C1=O (stereo not drawn)		> 100 µM
C=C1C2C[C@@H]3O[C@H]4C[C@H]5O[C@@]6(C[C@@H]7O[C@]8(C[C@H](C)[C@@H]9O[C@@H]%10CC(C=O)O[C@@H]%10C[C@@H]9O8)C[C@H](C)[C@@H]7O6)C[C@H]5O[C@H]4[C@H](C)[C@H]3OC(=O)C[C@H]3CC[C@@H]4OC5[C@H]6O[C@]7(CC[C@H]8CC(=C)[C@H](CC[C@@H](C[C@H]1C)O2)O8)CC6O[C@@H]5[C@@H](O7)[C@H]4O3 (stereo partly drawn)		< 0.0001 µM
O=S(=O)(O)c1ccc(Nc2ccnc3ccccc23)cc1		> 100 µM
Fc1ccc(Nc2ncc(-c3cc(F)c(Cl)cc3Cl)s2)cc1Cl	6.48 µM	24 µM
O=[N+]([O-])c1ccc(Cc2nc3cc4ccccc4cc3[nH]2)cc1C(F)(F)F		35.1 µM
O=C(COc1cccc(/C=C2\COc3ccccc3C2=O)c1)c1ccccc1	19.4 µM	59.5 µM
Cc1ccc(S(=O)(=O)OCC(=O)Nc2ccc(C(=O)O)c(O)c2)cc1	66.5 µM	183 µM
Cc1ccc(/C=C(/C#N)n2nnc3ncccc32)cc1	2.61 µM	11.9 µM
CCCCCCCCCC(=O)NCCc1c[nH]c2ccc(OC)cc12		38 µM
COc1ccc(-c2[nH]c(-c3ccc(OC)cc3)c(-c3ccccn3)c2-c2ccccn2)cc1		> 100 µM
O=C1Nc2ccc(O)cc2/C1=C\c1ccncc1	11.9 µM	25.9 µM
CC1=NN(c2cccc(Cl)c2)C2(C1=Cc1cccs1)C(Cl)C(=O)N2c1nc2ccccc2s1 (stereo not drawn)		47.1 µM

Compound	GI50	TGI
C=CCOC1CC(n2cnc3c(N)ncnc32)OC1CO (stereo not drawn)		> 100 µM
Clc1ccc(-c2nc3c(-c4ccccc4)nc(-c4ccccc4)cn3c2-c2ccc(Cl)cc2)cc1	> 100 µM	> 100 µM
Cc1cccc2c(N)c3cccc(C(=O)NCC[N+](C)(C)Cc4ccc(S(C)(=O)=O)cc4)c3nc12		> 100 µM
NC1=NCC(CN2CCCCC2)O1 (stereo not drawn)		> 100 µM
COc1ccc(OC)c(N=Cc2cc(OC)c(OC)c(OC)c2)c1		> 100 µM
Cc1cn(CC2=NC3CCCCC3N2)c(=O)[nH]c1=O (stereo not drawn)		> 100 µM
CCC(C)C(=O)O[C@H]1C(=O)O[C@@H]2C[C@H]3C(C)=CC(=O)[C@@H](O)[C@]3(C)[C@H]3[C@@H](O)[C@H](O)[C@@]4(C)OC[C@]32[C@@H]14 (stereo partly drawn)		0.5 µM
Cc1ccc(N=NN(C)C(C)C(O)Cc2ccccc2)cc1 (stereo not drawn)		> 100 µM
Cc1ccc2nc(Sc3c([N+](=O)[O-])ncn3C)[nH]c2c1		> 100 µM
CC(C)n1nc(C#Cc2cccc(O)c2)c2c(N)ncnc21	1.64 µM and 1.55 µM	9.61 µM and 5.48 µM
CCOC(=O)c1cc(-c2ccc([N+](=O)[O-])cc2)c([N+](=O)[O-])[nH]1		> 10 µM
N.N.N.N.N.N#Cc1nn[n-]n1.[Cl-].[Co+3]	> 100 µM	> 100 µM
COC(=O)C(=O)C(C#N)c1cccc(Cl)c1 (stereo not drawn)		> 100 µM
CCC(=O)N(c1ccccc1)C(C)CN1CCC(O)(c2cccc(C(F)(F)F)c2)CC1 (stereo not drawn)		47.2 µM
CNCCCn1c2c(c3ccc(Cl)cc3c1=O)C(=O)c1cc(OC)cnc1-2	1.28 µM	2.54 µM
CO[C@H](C(=O)O[C@H]1C(=O)N2CC[C@@H]3CCC[C@H]1C32C)c1ccccc1 (stereo partly drawn)		> 100 µM
CC1(c2nc3ccccc3[nH]2)CCC(C#N)C(C)(C)O1 (stereo not drawn)		> 100 µM
Nc1c(C(=O)c2ccc(C#CCN3CCOCC3)cc2)cnn1-c1ccc(F)cc1	> 25 µM	> 25 µM
O=C(NC(=O)c1ccccc1)OC(c1ccccc1)C1CO1 (stereo not drawn)		> 100 µM
COC(=O)C1CC(c2ccc(Cl)cc2)=NO1 (stereo not drawn)		> 100 µM
CC(C)(C)[Si](C)(C)OC1[C@@H](O[Si](C)(C)C(C)(C)C)[C@@H](CNC(=O)NC(=O)NC(=O)CCl)O[C@H]1n1cnc2c(NC(=O)Nc3ccccc3)ncnc21 (stereo partly drawn)	13.7 µM	43.9 µM
Nc1nc(=S)c2ncn(C3OC(CO)C(O)C3O)c2[nH]1 (stereo not drawn)	11.6 µM	> 100 µM
N#CC(c1ccccc1)N(CCc1ccccc1)C(=O)c1ccc(C(=O)N(CCc2ccccc2)C(C#N)c2ccccc2)cc1 (stereo not drawn)		84.1 µM
CCN(CC)CCCC(C)Nc1c2ccc(Cl)cc2nc2cc(Cl)ccc12 (stereo not drawn)		14.8 µM

Compound	GI50	TGI
CC12CCCC(C#N)(C1)OC2=O (stereo not drawn)		> 100 µM
O=C(Nc1ccccc1)n1cc(-c2ccccn2)c(N2CCOCC2)n1		> 100 µM
O=C1CC(C(=O)O)Cc2c(Br)ccc(O)c21 (stereo not drawn)		> 100 µM
O=C1C(Cl)=C(Cl)C(=O)N1c1ccccc1Cl		> 100 µM
O=c1ccc2c(Cl)cccc2o1		> 100 µM
O=C(/C=C/c1ccco1)Nc1ncc(Cc2cccc(C(F)(F)F)c2)s1	0.322 µM	> 39.2 µM
CSCCC(NC(=O)Cc1ccc(C(=O)c2ccccc2)cc1)C(=O)N1CCN(CCCCN2c3ccccc3Sc3cc(N=[N+]=[N-])ccc32)CC1 (stereo not drawn)		> 100 µM
O=C(O)c1ccc(NCc2nc3ccccc3[nH]2)cc1	> 100 µM	> 100 µM
CCCCCCc1cc2cc(C(=O)NCc3ccccc3)c(=N)oc2cc1O		> 100 µM
CN1CN(c2ccccc2)C2(CCN(C3Nc4ccccc4O3)CC2)C1=O (stereo not drawn)		85.9 µM
Cc1cc(Cl)ccc1NC(=O)CC1SC(=NC(=O)c2ccccc2Cl)NC1=O (stereo not drawn)		> 100 µM
CCOC(=O)NC(=O)c1cn(CCCCCCCCCCC(=O)NCCCN2CCN(CCCNC(=O)CCCCCCCCCCn3cc(C(=O)NC(=O)OCC)c(=O)[nH]c3=O)CC2)c(=O)[nH]c1=O		> 100 µM
O=C(CC(Cc1ccccc1)c1ccc(Oc2ccccc2)cc1)Nc1cccc(Cl)c1 (stereo not drawn)		> 100 µM
O=C(O)CCC(=O)Oc1ccc(O)c2c1CCCC2=O		> 100 µM
C1=Nc2ccccc2Cn2nncc21		> 100 µM
Cc1ccccc1C=NC12CC3CC(CC(C3)C1)C2		> 100 µM
COc1ccc(/C(=C/c2ccc3ccccc3c2)c2nn[nH]n2)cc1OC	6.88 µM	> 100 µM
CC(C)(Oc1ccc(C(=O)c2ccc(Cl)cc2)cc1Cl)C(=O)N1CCN(CCO)CC1		> 10 µM
COC(=O)CN=C1NC(=S)N(Cc2ccc(OC)cc2)C12CCCC2		> 100 µM
COc1ccc(CN2C(=O)/C(=C\C(=O)c3ccc(OCCN4CCCC4)cc3)c3ccccc32)cc1	14.7 µM	28.2 µM
COc1cc(-c2cc(-c3cccs3)c(C#N)c(N3CCOCC3)n2)cc(OC)c1OC	> 31.4 µM	> 100 µM
Cc1ccc(C(=O)O)c(/C=C2\Cc3cc(C)cc(C)c3C2=O)c1		> 100 µM
CCOc1cc(/C=N/c2nc3cc4sc(/N=C/c5ccc(O)c(OCC)c5)nc4cc3s2)ccc1O		> 100 µM
O=C(CCC(=O)Nc1ccc(Cl)cc1)CC(=O)c1ccc2ccccc2c1		> 100 µM

Compound	GI50	TGI
CN1C(=O)/C(=C2\S/C(=N\c3nnc(-c4ccccc4)o3)NC2=O)c2ccccc21	70.9 µM	> 100 µM
O=C1C[C@@H]2[C@@H](CCC23CCCC3)N1		> 100 µM
Cc1ccc(NC(=O)CCc2nnc3s/c(=C\c4cccc([N+](=O)[O-])c4)c(=O)n23)cc1		> 100 µM
O=C(/C=C\c1cc(Br)ccc1O)/C=C/c1cc(Br)ccc1O	1.66 µM	3.38 µM
Cc1ccc(S(=O)(=O)NN=C2C(C)(C)CC2(C)C)cc1		> 100 µM
CC1(CO)C(O)CCC2(C)C1C(O)CC1CC3CC12CCC3(O)CO (stereo not drawn)		> 225 µM
CCOC(=O)C1=C(C)NC(C)=C(C(=O)OCCNC(=O)c2ccc(N=[N+]=[N-])cc2)C1c1ccccc1C(F)(F)F (stereo not drawn)		> 31.6 µM
O=C(NC1CCN(Cc2ccccc2)CC1)c1cccc(I)c1		> 100 µM
Clc1ccc(C2CC(c3cccc(Nc4ccncc4)c3)=NN2c2ccccc2)cc1 (stereo not drawn)	1.57 µM	2.91 µM
O=S(=O)(Nc1nccs1)c1ccc([As](=O)(O)O)cc1		> 100 µM
O=C(Nc1ccn(C2CC(I)C(COC(c3ccccc3)(c3ccccc3)c3ccccc3)O2)c(=O)n1)c1ccccc1 (stereo not drawn)		> 31.6 µM
COc1ccc(C(=O)N2CCN(c3ccc4c(c3)OCC(=O)N4)CC2)cc1OC		> 100 µM
O=[N+]([O-])c1ccc(NNN=Nc2ccc(-c3nc4ccccc4[nH]3)cc2)c([N+](=O)[O-])c1		> 100 µM
Cc1cc2nc3c(=O)[nH]c(=O)nc-3n(CC(O)C(O)C(O)CO)c2cc1N (stereo not drawn)		> 100 µM
Cc1c2oc3c(C)cnc(C(=O)NC4C(=O)NC(C(C)C)C(=O)N5CCCC5C(=O)N(C)CC(=O)N(C)C(C(C)C)C(=O)OC4C)c3nc-2c(C(=O)NC2C(=O)NC(C(C)C)C(=O)N3CCCC3C(=O)N(C)CC(=O)N(C)C(C(C)C)C(=O)OC2C)c(N)c1=O (stereo not drawn)		> 70.9 µM
CCC1(OC(=O)CNC)C(=O)OCc2c1cc1n(c2=O)Cc2cc3ccccc3nc2-1 (stereo not drawn)		1.57 µM
COc1ccc(N=C(CS(=O)c2ccc(C)cc2)C(F)(F)F)cc1 (stereo not drawn)		> 100 µM
CC[O-].CC[O-].COc1ccc(C(=O)[CH-]C(C)=O)cc1OC.COc1ccc(C(=O)[CH-]C(C)=O)cc1OC.[Ti+4]	86.9 µM	> 100 µM
CC(C)C1CC(CO)(CNc2nc(N)nc(Cl)c2/C=N\O)C1 (stereo not drawn)		12.7 µM
O=C[C@]12CC=C3OC4OC5(CCCCC5)OC4[C@H]3[C@H]1C(=O)C=CC2=O (stereo partly drawn)		> 100 µM
CC(=O)Nc1c2sscc-2n(C)c1=O		2.92 µM
CCOC(CN(C)C(=O)Nc1ccc(Cl)c(Cl)c1)OCC		> 10 µM
